Test results taken from PubChem BioAssay AID485360 (National Center for Advancing Translational Sciences (NCATS), 2010).
Screen size: about 230,000 compounds; about 1,500 (0.65%) were called active. The shares of active, inactive and inconclusive entries below differ from those in the screen. Calls follow the shape of the dose curve; as a rule, active = well fitted inhibition curve with a large enough effect; inconclusive = small, poorly fitted or top-dose-only effect; inactive = no such curve, though single readings can be large or run the other way. A potency beside an inconclusive call is a rough fit, not a confirmed value.

molecular target: Lethal(3)malignant brain tumor-like protein 1 (Homo sapiens) (UniProt Q9Y468); assay: qHTS Assay for the Inhibitors of L3MBTL1; details: AlphaScreen L3MBTL1–H3K9me1 peptide binding; activity, negative = inhibition: at 57.1 µM (top of the series); also: nearly all actives have a fitted effect of over 60% in size
How it was run: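 AlphaScreen assay: L3MBTL1 (50 nM final) was preincubated 30 min at room temperature with biotinylated H3(1-15)K9me1 peptide (75 nM final), then 30 min with library compounds; streptavidin donor and nickel chelate acceptor beads (10 ug/mL final) added, 30 min dark.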
% is scaled to controls: 0 for no effect and ±100 for the full control effect; potency is read from the fitted curve at half-maximal effect; tags tell the direction and shape of the fitted curve.

Sequence of UniProt Q9Y468 (Q9Y468 whole entry, looked up): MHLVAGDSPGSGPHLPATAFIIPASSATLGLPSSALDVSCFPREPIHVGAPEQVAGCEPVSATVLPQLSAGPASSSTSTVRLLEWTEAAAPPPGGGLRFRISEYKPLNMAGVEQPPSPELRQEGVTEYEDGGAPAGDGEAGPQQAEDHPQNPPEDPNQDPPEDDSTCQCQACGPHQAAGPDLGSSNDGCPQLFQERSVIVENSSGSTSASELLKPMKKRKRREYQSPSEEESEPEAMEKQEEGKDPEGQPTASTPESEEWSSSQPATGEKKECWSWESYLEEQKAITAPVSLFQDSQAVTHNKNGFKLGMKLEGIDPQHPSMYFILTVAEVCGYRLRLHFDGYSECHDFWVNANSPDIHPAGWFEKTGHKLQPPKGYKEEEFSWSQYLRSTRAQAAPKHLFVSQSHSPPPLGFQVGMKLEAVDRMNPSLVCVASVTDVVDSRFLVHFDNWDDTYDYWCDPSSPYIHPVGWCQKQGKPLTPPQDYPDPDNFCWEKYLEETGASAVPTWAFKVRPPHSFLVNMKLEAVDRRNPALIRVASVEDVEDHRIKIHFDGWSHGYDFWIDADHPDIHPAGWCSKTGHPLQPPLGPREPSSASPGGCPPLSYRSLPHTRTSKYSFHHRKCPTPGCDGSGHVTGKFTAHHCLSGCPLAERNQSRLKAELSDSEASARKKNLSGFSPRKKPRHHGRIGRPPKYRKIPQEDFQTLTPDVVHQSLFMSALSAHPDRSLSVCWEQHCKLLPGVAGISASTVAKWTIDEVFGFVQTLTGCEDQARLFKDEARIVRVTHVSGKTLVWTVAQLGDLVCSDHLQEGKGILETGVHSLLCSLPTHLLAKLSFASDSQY

SMILES | Potency | activity, negative = inhibition
CCN(CC)c1ccc(/C=N/N2CCN(Cc3ccccc3Cl)CC2)cc1 | inconclusive: 11.2 µM [inhibitor, partial curve] | –
CC(=O)c1sc2nc(CSc3nnnn3-c3ccccc3)[nH]c(=O)c2c1C | inconclusive: 31.6 µM [inhibitor, single point] | –
Cc1ccc(S(=O)(=O)N2CCOCC2)cc1C(=O)Nc1nc(-c2ccccn2)cs1 | inconclusive: 22.4 µM [inhibitor, single point] | –
CCN1CCN(C(=O)/C=C/c2ccc(C)o2)CC1 | – | inactive: -4.23%
Cc1ccccc1CC(=O)NC1CCCc2ccccc21 (stereo not given) | – | inactive: 14.9%
CN1CCc2nc3sc(C(=O)C45CC6CC(CC(C6)C4)C5)c(N)c3cc2C1 | – | inactive: -5.48%
O=C(CSc1nc(=O)n2cc(Cl)ccc2n1)Nc1ccc2c(c1)OCO2 | inconclusive: 31.6 µM [inhibitor, partial curve] | –
COc1cccc(/C=N/NC(=O)c2cc3c(OC)cccc3[nH]2)c1OC | – | inactive: -4.34%
Cc1ccc(F)c(Oc2cc(NN3CCCCC3)c([N+](=O)[O-])cc2[N+](=O)[O-])c1 | inconclusive: 5.01 µM [inhibitor, full curve, poor fit] | –
CCN1C(=O)/C(=C/C=C2\C=CN(CC)c3ccccc32)SC1=S | – | inactive: -18.1%
COc1ccc(C(=O)NCCS(=O)(=O)NCc2ccco2)cc1 | inconclusive: 0.794 µM [inhibitor, partial curve, poor fit] | –
CCC1(c2ccccc2)NC(=O)N(CC(=O)N(CC(=O)Nc2ccccc2C(F)(F)F)Cc2ccco2)C1=O (stereo not given) | – | inactive: -8.61%
O=C(c1cc2ncccn2n1)N1CCc2c([nH]c3ccccc23)C1c1ccccc1F (stereo not given) | – | inactive: -6.55%
C/C(=N\OCC(=O)Nc1nc2ccccc2s1)c1ccccc1 | – | inactive: 5.54%
O=C(/C=C/c1ccc(O)cc1)c1ccc(NC2=C(N3CCCCC3)C(=O)c3ccccc3C2=O)cc1 | inconclusive: 6.31 µM [inhibitor, single point] | –
COc1ccc(S(=O)(=O)N2CCC(c3cc(-c4cccc5ccccc45)n[nH]3)CC2)cc1 | – | inactive: -6.21%
CCC1Nc2ncnc(N3CCc4ccccc4C3)c2N(Cc2ccc(Cl)cc2)C1=O (stereo not given) | inconclusive: 20 µM [inhibitor, partial curve] | –
COC(=O)c1c(NC(=O)C2CCC2)sc(C(=O)N(C)C)c1C | inconclusive: 6.31 µM [inhibitor, single point] | –
CC(=O)Nc1ccc(Nc2ncnc3c2cnn3-c2cccc(C)c2)cc1 | inconclusive: 6.31 µM [inhibitor, single point] | –
CC1(C)C2CCC(C2)C1(C)NC(=O)CN1CCN(Cc2ccccc2)CC1 (stereo not given) | – | inactive: -7.66%
